In PubChem BioAssay (NCI):
Some structures have more than one record in an assay (separate samples or runs), and their calls can disagree.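 Assay: single dose, 48 h. Readout: percent growth (0 = no net growth; negative = cell death). Active: <10.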 The source holds more than one record for some entries. The list is limited to them. There may be further records. The screen tested this drug many times, at its own concentration, as given; one value stands for one run. Signs of the kind (2×) count equal records among those shown.

Columns and labels:
SK-MEL-5 melanoma = test: NCI-60 one-dose screen, 48 h (100 = growth as untreated, 0 = no growth, -100 = all killed); details: 2.5 mM
UACC-62 melanoma = test: as above; details: 2.5 mM

O=c1[nH]cc(F)c(=O)[nH]1
growth (SK-MEL-5 melanoma; runs of 1992): active: -37, -60.2, -29.8, -56, -65.3, -73.6, -40.9, -60, -14.4, -66.1 (2×), -68.7, -43.4, 7.3, 8.08, 0.995, -70.8, -66.2, 7.8, -51.5 (2×), 5.23, -45.4, -31.4, -89, -66.9, -41.5, -50, 1.2, -26.6, -27.3 (2×), -74.3, -71.2, -80, 9.66, -37.2, -47.7, -27.8, -18.8, -11.4, -15.1, -32.2, -32.5, -56.4, -45.1, -73, -65.6, -40.4, -47.1, -32.3, -3.93, -9.51, -56.2, -53.6, -60.9, -81.3, -52.1, -63.6, -100, -44.8, -49.7, -49.4, -23, -49.3, -62.8, -56.8, -6.51, -14.6, -76.2, -68, -7.56, -81.4, -46.7, -11.8, -45.3, -18, -9.36, 3.08, -59.4, -68.9, -32.6, -54.3, -21.2, -61.6, -40.5, -49.2, -53.3, -75.5, -55.6, -39.1, -57.7, -83.1, 1.78, -85.5, -37.3 (2×), 10, -27.4, -25.8, -51.6, 3.11, 6.26, 1.51, 1.55% and inactive: 19.1, 13.8, 14.1 (2×), 11.9, 28.5, 15.1, 15, 13.4, 11.7, 26.5, 10.9, 17.5, 14.7, 16.2% | growth (SK-MEL-5 melanoma; runs of 1993): active: -63.9, -7.58, -14.3, -65.7, -70.1, -58.2, -11.6, 3.16, -44.6, -16.3, -58.6 (2×), -1.49, -48, -84.8 (2×), -30.2, -12.2, -39 (2×), -17.1, -39.6, -31.5, -24.4, -67.6, -54.4, -0.524, -44.7, -46.1, -74.2, -86.1, -42.3, -54.6, -53.6, -55.2, -47.7, -69.4, -43.3, -58.9, -89, -19, -42.2, -86.2, -72.7, -62.4, -30.5% and inactive: 87.4% | growth (SK-MEL-5 melanoma; runs of 1994): active: -74.3 (2×), -50.2, -50.4, -42.1, -34.4, -59.4, -72.1, -78.4, -54.7, -51.9, -69.7, -61.8, -75.5, -39.7, -38.3, -55.3, -32.8, 0.664, -54.6, -44.5, -11.9, -56, -47.5, -66.9, 0.367, -74, 6.73, -2.37, -22.2, -45.8, -52.3% | growth (SK-MEL-5 melanoma; runs of 1995): inactive: 10.7%, 14.6% and active: -74, -90.7, -71.1, -56.1, -45.7, -50.7, -17.4, -53.7, -25.4, -53.4, -77.9, -81.4, -70.8, -58.3, -25.2, -82.9, -41, -53.5, -50.6, 3.43, -25.6, -24, 4.21, -57.1, -68.8, -65.3, -4.23, -72.6, -79.2, -65.5, -9.1, -74.6, -89.7, -1.65, -38.7, 4.2, -77.8% | growth (SK-MEL-5 melanoma; runs of 1996): inactive: 17.6, 62.6, 13, 10.4% and active: 4.85, -83.5, -72, -28, -70.4, -76.7, 1.4, 1.72, -67.8, 7.71, -37, -35.8, -79.8, -87.9, -62.8, -32.4, -49.7, -71.3, -16.4, -17.7, -8.09, -66, -89.4, 2.58, -46.3, 3.38, -17.9, -52.1, -92.9, -64.5, 5.51, 0.304, -33.3, -66.3, -74.3, 0.872, -83.2, -44.4, -60.1, -7.57, -30.6, -44, -15.7, -76.1, -77.3, 7.07, -15.1, 2.34, -15, -42.6, 8.38, -56.9, 1.77% | growth (SK-MEL-5 melanoma; runs of 1997): active: -39.1, 3.64, 2.8, -3.02, -81.9, -41.9, -42.4, -13.3, 3.06, -52.4, -98.4, -12.6, -61.8, -7.99, -53.1, -24.6, -74.7, -100, -75.8, -15.4, -45.4, -18.5, -37.8, -51, -65.5, -23.1, -8.52, -81.2, -47.1, 4.59% and inactive: 61.9, 13.2, 24.9, 10.8% | growth (SK-MEL-5 melanoma; runs of 1998): active: -86.8, -54.6, -72.7, 6.02, -7.65, -37.1, -29, -31.3 (2×), -29.3, -3.66, 6.14, -27.3, -30.5, -52, 0.223, -56.6, -56.2, -20, -54.8, -50.5, -59.2, -52.4, -34.2% and inactive: 13.9% | growth (SK-MEL-5 melanoma; runs of 1999): inactive: 48.4%, 95% and active: -3.18, 4.08, -78.9, -68.5, -100 (2×), -66.2, -70.3, -62.9, -95.9, -80.7, -74.4, -81.1, -69.5, -87.2, -67.1% | growth (SK-MEL-5 melanoma; runs of 2000): active: -42.1, -51.7, -65.7, -85.8% | growth (UACC-62 melanoma; runs of 1991): active: -17.4, -21.6, -49.4, -65.5, -62.3, 5.08, -35.8, -79.7, 1.73, -90, -23.6, -56, -82.4, -65.3, -26.2, -45.7, -90.8, -96.6% and inactive: 10.2% | growth (UACC-62 melanoma; runs of 1992): active: -44.6, -34, -29, -18, -69.3 (2×), -53.1, -80.4, -88.8, -43.3, -45.6, 0.165, 3.38, -9.51, -18.8, -8.28, -40.2 (2×), -67.7, -90.5, -92.5, -11.7, -55.3 (2×), -27.2, -39.4, -59.6, -21.5, -21.4, -28.1, -25.6, -66.1, -38.9, -56.2, -54.5, -73.9, -63.7, -32.9, -82.8, -82, -17.4, -40.6, -17, -9.18, -56.4, -70.5, -22.2, -58.7, -14.3, 0.516, -47.9, -63.2, -30.7, -75.2, -50.3, -34.2, -28.2, -12.2, -11.8, 5.73, -76.2, -69.8 (2×), -59.7, -82.9, -57.4, -83.8, -46.5 (2×), -29.6 (2×), -46.3, -59, -17.7, -31.1, -26.9, -30.2, -72.2, -46.9, -84.4, -69.9, -91.4, -44.1, 7.17, -76, -14.7, -52.6, -60.4, -30.1, -14, -5.16, -61.4, -73.4, -73, -72.4, -13.9, -29.9, -35.8, -50.8, -31.2, -59.3, -58.1, -69, -3.02, -29.5, -24.3, -34.5, -68.3, -19.9, -16.7, -33.3, -30.8, -88.2, -79.6, -20.8, 1.52, -20.1% and inactive: 38.4, 11.1, 89.8, 14.6, 10.6, 65.5, 90.6% | growth (UACC-62 melanoma; runs of 1993): active: -44, -18.1, -35.6, -34.4, -28.3, -7.93, -31.7, -62.7, -87.7, 6.02, -1.66, 3.86, -16, 4.96, -23.4, -7.25, -68.2, -50, -16.5, -4.18, 2.62, -25.6 (2×), -21.5, -61.1, -2.41, -9.84, -47.3, -5.84, -64, -4.6, -47.6, 7.84, -15.1, -58.1, -6.58, -3.95, -58.6, 7.16, 2.61, -13.6% and inactive: 10, 12.8, 106, 65.8% | growth (UACC-62 melanoma; runs of 1994): active: -62.7, -1.17, 3.06, -60.7, -60.5, -6.88, -27.8, -65, -35, 0.722, -91.1, -5.39, -85.7, 6.94, -21.7, -80.4, -66.6, -27.3, -14.5, -46.1, 8.66, -72.2, -25.6, 0.456, -12.7, -11.5, 6.4, -36.9, 4.63% and inactive: 24.1%, 13.8%, 20.5% | growth (UACC-62 melanoma; runs of 1995): inactive: 29.1, 16.8, 27.3, 24.8, 32, 10.7% and active: -55.8, -6.74, -15.8, -7.67, -39.5, 9.52, -21.8, 9.71, 9.15, 2.25, -50.3, -5.14, -60.2, -75.7, -24.4, -67 (2×), -30.4, -20.8, -77, -27.8, 2.84, -25.9, -63.2, 1.05, -52, -19, -13.5, 6.03, 1.55, -36.6, -43.7, -16.3, -50.9, -69.5, -72.1, -77.7, -18.6, -29.2, -55.3, -35, -75.3, -46.8, -33.2, -39, -23.9, -100% | growth (UACC-62 melanoma; runs of 1996): active: -33.7, -39.9, -42.9, -41.2, 4.38, -73.8, -26.5, -18.4, -32.1, -36.7, -36 (2×), -78.7, -100 (8×), -78.2, -87.7, -26.8, -31.8, -75.7, -38.6, -65.8, -58.3, -68.9 (2×), -99.3, -48.2, -58.7, -26 (2×), -46.9, -6.28, -14.6, -16.8, -42.7, -13.1, -25.1, -41.3, -2.88, -91.9, -85.5, -75.3, -38.7, -16.1, -50, -4.3, -3.31, -18.3, -38, -91.3, -90.6, -69.8, -81.4, -2.78, 4.92, -5.39, 7.1, -61.8, -70.9, -49.7, -39.5, -14.2, -39.3, -66, -29.1, -37.2, -7.08, -18.5, -20.7, -13, -10.4, -7.66, -24.1, -45.5, -27.7, -22.4, 0.236, -9.72, -23.8, -7.29, -54.4, -15.5 (2×), -46.4, -34, -47.1, -2.33, 0.876, -25.3, -39.4, -57.3, -8.02, -5.57, -22.2, -59.4, -50.4, -48.3% and inactive: 102, 117, 51.2, 43.3, 10.2 (2×), 12.9, 10.9, 25.5, 10.7, 88%
